The other results are listed elsewhere or left out. No stated cut-off is given here; in the data, active = 3.2 or more and inactive = the rest. The signal is at background level for most entries.
Key:
Test in all cases: enrichment score (SH2-bound / input frequency) (ratio); bacterial display of known human phosphotyrosine sites (pTyr-Var adds point mutants) read by sequencing; higher = stronger binding; tyrosines were phosphorylated by kinases first
Settings in all cases: peptide library: pTyr-Var
[1] = target: SHP2 C-SH2 domain E139D
[2] = target: SHP2 C-SH2 domain wild-type
[3] = target: SHP2 N-SH2 domain L43F
[4] = target: SHP2 N-SH2 domain T42A
[5] = target: SHP2 N-SH2 domain T52S
[6] = target: SHP2 N-SH2 domain wild-type
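Further: displayed peptides selected on beads carrying the immobilized SH2 domain, with library peptides lacking any tyrosine serving as negative controls.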

Binder	enrichment score [1]	enrichment score [2]	enrichment score [3]	enrichment score [4]	enrichment score [5]	enrichment score [6]
ITGNGYYFRVF [MYBPC3_Y1135_I1131T]	inactive: 0.593	inactive: 0.941	inactive: 0.822	inactive: 0.611	inactive: 0.611	inactive: 0.986
ITGNGYFFRVF [MYBPC3_Y1135_I1131T_YF]	inactive: 0.635	inactive: 0.9	inactive: 0.834	inactive: 0.647	inactive: 0.653	inactive: 0.77
FTNRSYDLDYD [MYC_Y12_N11S]	inactive: 0.67	inactive: 0.591	inactive: 0.445	inactive: 0.645	inactive: 0.687	inactive: 0.615
PNRILYGDFRQ [MYH6_Y717]	inactive: 0.982	inactive: 1	inactive: 0.905	inactive: 1.05	inactive: 0.926	inactive: 0.945
VHSGTYQVMVR [MYBPC3_Y1043_T1046M]	inactive: 1.01	inactive: 0.925	inactive: 0.889	inactive: 0.914	inactive: 0.984	inactive: 0.829
IGNGYYFHVFS [MYBPC3_Y1136_R1138H]	inactive: 1.52	inactive: 2.34	inactive: 1.41	inactive: 1.52	inactive: 1.78	inactive: 1.58
IFCIQYNIRAF [MYH4_Y820]	inactive: 2.54	inactive: 2.81	inactive: 2.87	inactive: 1.99	inactive: 2.89	inactive: 2.54
ETMNKYHLSGR [MYEF2_Y164_D165H]	inactive: 0.623	inactive: 0.655	inactive: 0.829	inactive: 0.661	inactive: 0.661	inactive: 0.878
EPAVLYNLKDR [MYH7_Y103]	inactive: 1.08	inactive: 0.692	inactive: 0.697	inactive: 0.568	inactive: 0.727	inactive: 0.594
FTNRNYDLDFD [MYC_Y12_YF]	inactive: 0.891	inactive: 0.752	inactive: 0.748	inactive: 0.604	inactive: 0.698	inactive: 0.826
KWKQKYEESQS [MYH6_Y1462_E1457K]	inactive: 1.54	inactive: 1.63	inactive: 1.62	inactive: 1.68	inactive: 1.67	inactive: 1.55
IIGNGYYFHVF [MYBPC3_Y1135_R1138H]	inactive: 0.948	inactive: 1.13	inactive: 0.901	inactive: 1.17	inactive: 1.03	inactive: 1.26
PIPIKYKAMKK [MYD88_Y257_L252P]	inactive: 1.19	inactive: 0.907	inactive: 0.939	inactive: 1.05	inactive: 0.892	inactive: 1.36
RMETAYGPSVT [MXRA5_Y2717_E2716A]	inactive: 1.02	inactive: 0.65	inactive: 0.541	inactive: 0.391	inactive: 0.488	inactive: 0.484
IFCIQYNICAF [MYH4_Y820_R823C]	active: 4.92	active: 3.52	active: 3.89	active: 3.78	active: 3.7	active: 3.82
IGNGYYFRVFS [MYBPC3_Y1136]	inactive: 0.556	inactive: 0.828	inactive: 0.831	inactive: 0.668	inactive: 0.63	inactive: 0.814
FTNRSYDLDFD [MYC_Y12_N11S_YF]	inactive: 0.737	inactive: 0.709	inactive: 0.849	inactive: 0.894	inactive: 0.716	inactive: 0.842
QWRTKYEMDAI [MYH7_Y1375_T1377M]	inactive: 1.1	inactive: 1.14	inactive: 0.966	inactive: 0.972	inactive: 1.23	inactive: 1.03
NFDLDYDSVQP [MYC_Y16_YF]	inactive: 0.685	inactive: 0.655	inactive: 0.544	inactive: 0.549	inactive: 0.853	inactive: 0.811

Reference: the supplement of paper PMC10369915
